Test results taken from the supplement of paper PMC8728848.
The other results are listed elsewhere or left out.

Key:
Assay in all cases: glycan array binding signal (z-score within array); higher = stronger binding
Conditions in all cases: glycan notation: IUPAC condensed, linker removed
Neu5Ac(a2-8)Neu5Ac = biological target: Neu5Ac(a2-8)Neu5Ac
Procedure, shortened: (§1)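 The binding signal is a Z-score computed within each array and averaged over linkers. Arrays of the same protein sequence at different concentrations or buffers were also averaged together. Data originate from 3228 arrays in the Consortium for Functional Glycomics database, kept only where the protein sequence was available.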

[1] = biological target: Neu5Ac(a2-8)Neu5Ac(a2-3)Gal(b1-3)GalNAc(b1-4)[Neu5Ac(a2-3)]Gal(b1-4)Glc
Procedure, shortened: as §1

[2] = biological target: Neu5Ac(a2-8)Neu5Ac(a2-3)Gal(b1-3)GalNAc(b1-4)[Neu5Ac(a2-8)Neu5Ac(a2-3)]Gal(b1-4)Glc
Procedure, shortened: as §1

[3] = biological target: Neu5Ac(a2-8)Neu5Ac(a2-3)Gal(b1-4)Glc
Procedure, shortened: as §1

[4] = biological target: Neu5Ac(a2-8)Neu5Ac(a2-3)Gal(b1-4)GlcNAc
Procedure, shortened: as §1

[5] = biological target: Neu5Ac(a2-8)Neu5Ac(a2-3)[Gal(b1-3)GalNAc(b1-4)]Gal(b1-4)Glc
Procedure, shortened: as §1

[6] = biological target: Neu5Ac(a2-8)Neu5Ac(a2-3)[GalNAc(b1-4)]Gal(b1-4)Glc
Procedure, shortened: as §1

[7] = biological target: Neu5Ac(a2-8)Neu5Ac(a2-8)Neu5Ac
Procedure, shortened: as §1

[8] = biological target: Neu5Ac(a2-8)Neu5Ac(a2-8)Neu5Ac(a2-3)Gal(b1-4)Glc
Procedure, shortened: as §1

[9] = biological target: Neu5Ac(a2-8)Neu5Ac(a2-8)Neu5Ac(a2-3)[Gal(b1-3)GalNAc(b1-4)]Gal(b1-4)Glc
Procedure, shortened: as §1

[10] = biological target: Neu5Ac(a2-8)Neu5Ac(a2-8)Neu5Ac(a2-3)[GalNAc(b1-4)]Gal(b1-4)Glc
Procedure, shortened: as §1

[11] = biological target: Neu5Ac(a2-8)Neu5Ac(a2-8)Neu5Ac(a2-8)Neu5Ac(a2-3)[GalNAc(b1-4)]Gal(b1-4)Glc
Procedure, shortened: as §1

[12] = biological target: Neu5Ac(a2-8)Neu5Gc(a2-3)Gal(b1-4)GlcNAc
Procedure, shortened: as §1

[13] = biological target: Neu5Ac(b2-6)Gal(b1-4)GlcNAc
Procedure, shortened: as §1

Neu5Ac(b2-6)GalNAc = biological target: Neu5Ac(b2-6)GalNAc
Procedure, shortened: as §1

[14] = biological target: Neu5Ac9Ac(a2-3)Gal(b1-3)GlcNAc
Procedure, shortened: as §1

[15] = biological target: Neu5Ac9Ac(a2-3)Gal(b1-4)GlcNAc
Procedure, shortened: as §1

[16] = biological target: Neu5Ac9Ac(a2-6)Gal(b1-4)GlcNAc
Procedure, shortened: as §1

[17] = biological target: Neu5Gc(a2-3)Gal(b1-3)GlcNAc
Procedure, shortened: as §1

[18] = biological target: Neu5Gc(a2-3)Gal(b1-3)[Fuc(a1-4)]GlcNAc
Procedure, shortened: as §1

Neu5Gc(a2-3)Gal(b1-4)Glc = biological target: Neu5Gc(a2-3)Gal(b1-4)Glc
Procedure, shortened: as §1

[19] = biological target: Neu5Gc(a2-3)Gal(b1-4)GlcNAc
Procedure, shortened: as §1

[20] = biological target: Neu5Gc(a2-3)Gal(b1-4)GlcNAc(b1-3)Gal(b1-4)GlcNAc(b1-2)Man(a1-3)[Neu5Gc(a2-3)Gal(b1-4)GlcNAc(b1-3)Gal(b1-4)GlcNAc(b1-2)Man(a1-6)]Man(b1-4)GlcNAc(b1-4)GlcNAc
Procedure, shortened: as §1

[21] = biological target: Neu5Gc(a2-3)Gal(b1-4)[Fuc(a1-3)]GlcNAc
Procedure, shortened: as §1

[22] = biological target: Neu5Gc(a2-6)Gal(b1-4)GlcNAc
Procedure, shortened: as §1

Neu5Gc(a2-6)GalNAc = biological target: Neu5Gc(a2-6)GalNAc
Procedure, shortened: as §1

[23] = biological target: Neu5Gc(a2-8)Neu5Ac(a2-3)Gal(b1-4)GlcNAc
Procedure, shortened: as §1

[24] = biological target: Neu5Gc(a2-8)Neu5Gc(a2-3)Gal(b1-4)GlcNAc
Procedure, shortened: as §1

[25] = biological target: Neu5Gc(a2-8)Neu5Gc(a2-3)Gal(b1-4)GlcNAc(b1-3)Gal(b1-4)GlcNAc
Procedure, shortened: as §1

[26] = biological target: Neu5Gc(a2-8)Neu5Gc(a2-6)Gal(b1-4)GlcNAc
Procedure, shortened: as §1

[27] = biological target: Neu5Gc(b2-6)Gal(b1-4)GlcNAc
Procedure, shortened: as §1

B1: GS13686A-pdi-553-26-553 (Parabacteroides distasonis) (protein)
chain: NENPDKPTDDVNYNMNEPRLASTLRGGLIIEGNVEQRLKPLQIDFYSQMTVDGGGWGTKNYIQDDEWNNLVWEEYLKQIASINIVIRSLTEKDKDAYANTIAFARIWRVYVHTLAADKFGPMPFPAYEIVEANPPYKSLKDIYDEYFRELDAAINGFNDSAQPIFSDAGIDLIYKNDVSKWKRFANSLRLRLAVRLTEVDQEKCIAEANAAISSPAGLISDKADNAYMPPKADGSWGQDYNYTMFQITWSGPICMSKSVEKLVTNIGGVAWPQGVVNQTSGVAVSSVHPEKVDPRAPKIFQPGIENGDWKGLVYGPKAEEANTGIYQSKQCAELGFIIKDGYPYKSRPYDLFLSEEVHFLKAELYARGFIAGDAKSEYEAGVRASFATWGVTSEVDDYLTSTEKNEAGTSARYDDQQGAGNTALEKIITQKYIAGIPDLAQEGWNDKRRLNLPRLDVAVYRDQAVYNNNDKDILKSANFIKRMRYPTKESLINATEYEKGKSMLGGKGDIVSTPLWWDKNSNYCTSSK
With B1 the “glycan array binding signal (z-score)” value (Neu5Ac(a2-8)Neu5Ac) was -0.281, the “glycan array binding signal (z-score)” value [1] was -0.122 and the “glycan array binding signal (z-score)” value [2] was 0.891. The “glycan array binding signal (z-score)” value [3] was -0.157, the “glycan array binding signal (z-score)” value [4] was -0.184 and the “glycan array binding signal (z-score)” value [5] was -0.014. For the same binder, the “glycan array binding signal (z-score)” value [6] was 0.06, the “glycan array binding signal (z-score)” value [7] was -0.353 and the “glycan array binding signal (z-score)” value [8] was -0.13. The “glycan array binding signal (z-score)” value [9] was 0.013, the “glycan array binding signal (z-score)” value [10] was 0.334 and the “glycan array binding signal (z-score)” value [11] was 0.062. For the same binder, the “glycan array binding signal (z-score)” value [12] was 0.094, the “glycan array binding signal (z-score)” value [13] was 0.458 and the “glycan array binding signal (z-score)” value (Neu5Ac(b2-6)GalNAc) was -0.38. For the same binder, the “glycan array binding signal (z-score)” value [14] was -0.071, the “glycan array binding signal (z-score)” value [15] was -0.161 and the “glycan array binding signal (z-score)” value [16] was -0.251. For the same binder, the “glycan array binding signal (z-score)” value [17] was -0.353, the “glycan array binding signal (z-score)” value [18] was -0.275 and the “glycan array binding signal (z-score)” value (Neu5Gc(a2-3)Gal(b1-4)Glc) was -0.17. The “glycan array binding signal (z-score)” value [19] was -0.175, the “glycan array binding signal (z-score)” value [20] was 0.173 and the “glycan array binding signal (z-score)” value [21] was 0.009. The “glycan array binding signal (z-score)” value [22] was 0.07, the “glycan array binding signal (z-score)” value (Neu5Gc(a2-6)GalNAc) was -0.384 and the “glycan array binding signal (z-score)” value [23] was -0.435. For the same binder, the “glycan array binding signal (z-score)” value [24] was 0.041, the “glycan array binding signal (z-score)” value [25] was -0.323 and the “glycan array binding signal (z-score)” value [26] was -0.362. The “glycan array binding signal (z-score)” value [27] was -0.044.
